Measurements reported in article PMC12136788.
The other results are listed elsewhere or left out.

T1: UNK ZnF1-3 (human, UniProt Q9C0B0 31-174)
T1 sequence: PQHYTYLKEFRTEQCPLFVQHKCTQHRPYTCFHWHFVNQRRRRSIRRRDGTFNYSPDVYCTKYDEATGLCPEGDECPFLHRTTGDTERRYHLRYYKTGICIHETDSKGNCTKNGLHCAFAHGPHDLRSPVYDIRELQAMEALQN

B1: 79225659_79232078_1400_3pUTR_ENSMUSG00000020716_ENSMUST00000071325|mouse|control|control (ssRNA)
RNA: GGGAGUUCUACAGUCCGACGAUCUCUUAGGCCACCAAUCCAACGCAGAAUUGGUGAUGAUGCGGUGCAGUGAGUUUACCAACACAUAGUGAAAUGUAGAAGGUGAAUUCUGAGCCAGGCAGAUCUUAAAGUGUUGGUUGUUGUCAACAGAGGAUUGAGCAUCA
B2: chr1:244870462:244870463:+_ENSG00000121644_ENST00000302550|hu_hu|motif|central (ssRNA)
RNA: GGGAGUUCUACAGUCCGACGAUCAUAGCAAACAAUCCAAUCUAAAAGUUUAAAUAAAUGUCAAUAAUUUUAAAACGGACGGUAUUUUAUAUGUAUAUAAAGCUGAAGUCACUGCCUUGGAUAGUGUUACACUGCAUCCAAUAUCAACAGAGGAUUGAGCAUCA
B3: chrX:71549400:71549401:+_ENSMUSG00000019087_ENSMUST00000019231|mus_hu|mus_mus_mus_hu_False|88_98 (ssRNA)
RNA: GGGAGUUCUACAGUCCGACGAUCGCAGUAGGAAGAGCAAACCUUUCCAUCCACUGUCGCUGCAGGGUGGGAAAGCAACAACACGGACACCGUCCCACCCUCAACCCCCCCACUGGCACAGGGUCACACAAUCUGGGUCAAAGACAACAGAGGAUUGAGCAUCA
B4: chr1:163117127:163117128:-_ENSG00000143248_ENST00000313961|hu_mus|hu_hu_hu_mus_False|38_58 (ssRNA)
RNA: GGGAGUUCUACAGUCCGACGAUCUGCUACAAAGGAUGUAACUCAACUCACAGGGCAACUUUUGGAAGCCUGACCAGAUUACUACUUGAUUAGCUCCUGAUAAAACUCAGAGCGCACAAAGCGGGGCAGAGAAUCCUUCUCCAUCAACAGAGGAUUGAGCAUCA
B5: chr1:225611761:225611762:-_ENSG00000143815_ENST00000272163|hu_hu|FALSE|FALSE (ssRNA)
RNA: GGGAGUUCUACAGUCCGACGAUCCCAGGCCAUCGACCUCUUACCACUUCACCAUCGGCAAAUUUCCUACUUGGCAUUUUCUAUAAUUAACCUGCGCCAGGUUCCGGCGGUGACACGGACGGCUCCCGGAGAAUAGUCGCACAGCAACAGAGGAUUGAGCAUCA
B6: chr6:18258251:18258252:-_ENSG00000124795_ENST00000397239|hu_mus|FALSE|FALSE (ssRNA)
RNA: GGGAGUUCUACAGUCCGACGAUCCUUCUUCAACGAGGACACUGUGCCCGGCCUGUUGUAAAGCAGUUUGUGUAGAUUUCUAAGUUCAUCUGGUUUUUUCUUACUCAGAAAGAAAUGUAUCCUUUCAAUUUCACAAAGUUUCUGCAACAGAGGAUUGAGCAUCA
B7: chr12:48362563:48362564:+_ENSG00000134291_ENST00000256686|hu_hu|hu_hu_hu_mus_False|28_58 (ssRNA)
RNA: GGGAGUUCUACAGUCCGACGAUCUCCGUCAAGCCCUUCGAUAGACCCUUGCGGGGGAAACUGUAAUCACUUUGUAUUUCUAAAAAAAAGAAACGCCAAAAACUUUCUUUCUUUCUUGGGUGGGGUGAGGCGGGAGGGGGAGGUCAACAGAGGAUUGAGCAUCA
B8: chr3:148802587:148802588:-_ENSG00000071794_ENST00000310053|hu_mus|hu_hu_hu_mus_False|8_98 (ssRNA)
RNA: GGGAGUUCUACAGUCCGACGAUCUCCAACAACUUGUCCUCUCAAACUUCCAAAUAAAACCAAAUCUUGCUCUUCAUCACUCGUUAGGAAGUCAUCUGGAGGAAUAAUGUCUUGGAAUUCAAAAUGUGGAAAGAAAGUUGAGUACAACAGAGGAUUGAGCAUCA
B9: chr14:57521665:57521666:+_ENSMUSG00000021945_ENSMUST00000022511|mus_hu|FALSE|FALSE (ssRNA)
RNA: GGGAGUUCUACAGUCCGACGAUCAACAACAUCAUCAUCAUCUUCCACUGACGAGUUCUGAAACUUAUUAGAUCUAGACACUAAAGGAUUAGCUGGACCACUAAAUGAGUUUCCUACAUUCGUGAGACUAGUUGCCAUGGCCGUCAACAGAGGAUUGAGCAUCA
B10: 64900861_64905178_1367_3pUTR_ENSG00000113595_ENST00000231524|human|control|control (ssRNA)
RNA: GGGAGUUCUACAGUCCGACGAUCCUACAAUCAUCCUGCUGCAAAGUCUUUUCACAGUGGAGGCAGGCUGCAGAAACCUCUGACAACAAAAUAGUCAUAUCUUCUUGUUGCUGCCUGAGCCAAAUCAAUUUUUCACGAACAUGACAACAGAGGAUUGAGCAUCA
B11: chr20:36033742:36033743:+_ENSG00000197122_ENST00000358208|hu_hu|FALSE|FALSE (ssRNA)
RNA: GGGAGUUCUACAGUCCGACGAUCAUCAGACAAUAUGCAAAGUAUUUACAACCAAUUCUGGAUACCCCCCCACCCCCCGCAAGUCUGGGCCUUGGAAUUUCGGAGCCCCAGGCCCGGCCCAGAGCCAGGGGUCCCCCAGGCCUCCAACAGAGGAUUGAGCAUCA
B12: chr12:493273:493274:-_ENSG00000073614_ENST00000399788|hu_mus|hu_hu_hu_mus_False|48_108 (ssRNA)
RNA: GGGAGUUCUACAGUCCGACGAUCUUUUCUCUCUACCACAGGGAUCUUCAAUGUAGAUCCUUGAAGUUCCCAAAAUUUUGCCAGUUGAUCCAAGAAAUCCAAUCUUACUCUAGUCAUUGCCUCAAGUUCAUUCAGGCGCUGGACCAACAGAGGAUUGAGCAUCA
B13: chr2:35971668:35971669:-_ENSMUSG00000026889_ENSMUST00000028251|mus_mus|FALSE|FALSE (ssRNA)
RNA: GGGAGUUCUACAGUCCGACGAUCAAGAAUUGGUACAAAUCAUAGACAUUGUUUAAAUACAAAUAAAUAGUUCUAGAUUCUAAAGAAACAACUCUAGAUAAUCCUAAGUAUUCUCUAGGUUCCUAUUAAAAAUAGAAGGCUAUUCAACAGAGGAUUGAGCAUCA
B14: chr1:172411362:172411363:-_ENSG00000135845_ENST00000344529|hu_mus|FALSE|FALSE (ssRNA)
RNA: GGGAGUUCUACAGUCCGACGAUCCAUGGCGUAGAUAGUGUCUGUACUGACAGACUCCGUCAGGGUCUUUAGCACAGGUGAAAAACCGUAAGUGAAAGUGAUAAAGACCAGAGUACUCUUCAGGUCGGCCCACCGGGUCCGCCCCAACAGAGGAUUGAGCAUCA
B15: chr17:88387627:88387628:+_ENSMUSG00000005370_ENSMUST00000005503|mus_mus|FALSE|FALSE (ssRNA)
RNA: GGGAGUUCUACAGUCCGACGAUCAAAAUCGUCUCCAAAAAAAGUCUUUGUAAUGCAGGGAUGUCGUGACCCUUUAAACUCUAAGAAGGGAUGUGUGUCUUCUCCUGGUAACACAAUUUCUGGGCGACACAUAGGACCAUCUCCCAACAGAGGAUUGAGCAUCA
B16: chrX:71549400:71549401:+_ENSMUSG00000019087_ENSMUST00000019231|mus_hu|mus_mus_mus_hu_False|18_68 (ssRNA)
RNA: GGGAGUUCUACAGUCCGACGAUCGCAGUAGGAAGAGGGAAGCUCUUCAGUCCAGUGCGCUGCAGGGAGAAACAUGAACAACACGGACACCGUCCCACCCUCAACCCCCCCACUGGCAUGUCACACAACAAUCUGGGUCAAAGACAACAGAGGAUUGAGCAUCA
B17: chr7:149838571:149838572:-_ENSMUSG00000048583_ENSMUST00000000033|mus_mus|FALSE|FALSE (ssRNA)
RNA: GGGAGUUCUACAGUCCGACGAUCCAUGUAUCACUUGGCAGUGCCAUCUCCUUAUCUGGCCAAACUUAUUCUACACUGGCUAGUCAUUGGUCCUCAUGGCGGGGGUGGUUGGGGAGCACCGGGCUCACCAUGUGGACAGGUGCUCAACAGAGGAUUGAGCAUCA
B18: chr2:114393739:114393740:-_ENSMUSG00000057147_ENSMUST00000102542|mus_mus|FALSE|FALSE (ssRNA)
RNA: GGGAGUUCUACAGUCCGACGAUCAUUAGAAGCUAUCAUCUCUCGGAGCAAAUCUUCCUGGUUUCUUUGCCAAAGAUAAGCUAAAGGCUGGAGAUUGAGUCGUUUACAUACAUUUUCUACUCGUCCACGUUGAUAGUCAGAGAGCAACAGAGGAUUGAGCAUCA
B19: chr18:55283160:55283161:-_ENSG00000134440_ENST00000256854|hu_hu|motif|central (ssRNA)
RNA: GGGAGUUCUACAGUCCGACGAUCGUUCUUCAACUGUGAUUUAGAAAUAACAUUCCACCUCUCAUUUUCUUUUUGUGAAUCGGCGUAAAUGGUAGGAAAUGGUUCUUUCCCUACUGUCAUCAAAGCCUUUAGACCUGUUUUAAACAACAGAGGAUUGAGCAUCA
B20: chr3:119450855:119450856:-_ENSMUSG00000028134_ENSMUST00000029780|mus_hu|mus_mus_mus_hu_False|8_8 (ssRNA)
RNA: GGGAGUUCUACAGUCCGACGAUCUGUGGUGCCACUAAGAGGAGUAUUUGCUGUCUGGACAGCUGUCACAGCUUGAAGAACUGCCUGAGCACGUUGGUUUAAUGUAUUAUCUGUCUUUAGUUCUUUGUGAUUGGAGUACUGGAUCAACAGAGGAUUGAGCAUCA
B21: chr10:22606824:22606825:+_ENSG00000148444_ENST00000456711|hu_hu|FALSE|FALSE (ssRNA)
RNA: GGGAGUUCUACAGUCCGACGAUCAUGUAAGUUGCAGCUGCUGCAUGACAAUGUUUUAAAACCACUGGGUCGAUAUGUUUCAAGUCUGGAUGAUCUAACACGGCCUCGUCCGCCUGGGCGUCCAGCAGACUCUGGAAUGCCGCCCAACAGAGGAUUGAGCAUCA
B22: 137368508_137368628_152_5pUTR_ENSG00000031003_ENST00000033079|human|control|control (ssRNA)
RNA: GGGAGUUCUACAGUCCGACGAUCCUUCUCCAGGACCCGCGGCGACGGCAAGAGGGCGAGAACUGAGGCCCCAAGUGGCUCCGCGGCCGAGAAGCCUCUUCCUGGGGCGGCCGCUGACGGGAGGUUAAAGCUACGGCUGUGGCGCAACAGAGGAUUGAGCAUCA

molecular target: T1, UNK ZnF1-3; test: nsRBNS (natural sequence RNA bind-n-seq); RBNS binding buffer (assumed for nsRBNS): 25 mM Tris pH 7.5, 150 mM KCl, 3 mM MgCl2, 0.01% Triton X-100, 500 ug/ml BSA, 20 U/ml SUPERase-In, 4 C; UNK is unkempt and MSI1 is Musashi-1; names of the RNAs are library labels; protein concentration not given here; high values mean tight binding

Binder | binding signal [enrichment R]
B1 | 0.783
B2 | 2.46
B3 | 1.23
B4 | 1.1
B5 | 1.06
B6 | 0.59
B7 | 1.52
B8 | 1.1
B9 | 0.811
B10 | 0.983
B11 | 2.04
B12 | 1.02
B13 | 1.15
B14 | 0.792
B15 | 0.897
B16 | 1.62
B17 | 0.672
B18 | 0.802
B19 | 0.455
B20 | 0.972
B21 | 0.873
B22 | 0.845
